Test [1] has as its target T1, human 4-1BB on CHO-K1 cells (human, UniProt Q07011 24-255).
T1 construct: whole, on cells; also called CHO-K1/hu 4-1BB; CHO-K1/hu4-1BB
As to the kind of experiment: FACS, CHO-K1 cells expressing human 4-1BB. On the technique in general: In flow cytometry, cells or beads pass a laser one at a time.

For test [2], the target named is T2, histidine-labeled human 4-1BB protein (human, UniProt Q07011 24-186).
T2 construct: also called Human 4-1BB protein antigen (histidine-labeled); human 4-1BB protein and his tag (Acrobiosystem, #41B-H5227); not shown: histidine tag
The test is described as follows: SPR Biacore, antibody on Protein A, antigen as analyte, 1:1 fit. For orientation: Surface plasmon resonance follows binding to a sensor surface in real time, without labels.

In test [3] the target is T3, cynomolgus monkey 4-1BB on CHO-K1 cells (cynomolgus monkey).
T3 construct: whole, on cells; also called CHO-K1/cyno 4-1BB; CHO-K1/cyno4-1BB
The test is described as follows: FACS, CHO-K1 cells expressing cynomolgus monkey 4-1BB.

B1: PR000448 (antibody, human IgG4 S228P, kappa)
heavy: QVQLQQWGAGLLKPSETLSLTCAVYGGSFSGYYWSWIRQPPGKGLEWIGEIQHSGSTDSNPSLKGRVTFSVDTSKNQFSLKLNSVTAADTAVYYCARLTGPFDYWGQGTLVTVSSASTKGPSVFPLAPCSRSTSESTAALGCLVKDYFPEPVTVSWNSGALTSGVHTFPAVLQSSGLYSLSSVVTVPSSSLGTKTYTCNVDHKPSNTKVDKRV[in this place human IgG4 Fc with S228P (EU numbers)]
light: EIVMTQSPATLSVSPGERATLSCRASQSISSILAWYQQKPGQAPRLLIYGASTRATGIPARFSGSGSGTEFTLTISSLQSEDFAVYYCQQYYNWPLTFGGGTKVEIKRTVAAPSVFIFPPSDEQLKSGTASVVCLLNNFYPREAKVQWKVDNALQSGNSQESVTEQDSKDSTYSLSSTLTLSKADYEKHKVYACEVTHQGLSSPVTKSFNRGEC
notes: Variant of PR000197 (VH:N52Q; VL:F2I), human IgG4 S228P
A word on the EC50: it is the concentration needed to bring the measured effect to its halfway point. A word on the Kd: it is the concentration at which binding is half-saturated. As a reminder, the koff is a measure of how fast the partners let go of each other. The kon is the rate constant with which the complex forms. Turning to B1, the EC50 in test [1] is 947 pM. In test [2], this molecule displayed a Kd of 155 pM, an off-rate constant (koff) of 0.00022 s⁻¹ and an on-rate (kon) of 1.42e+06 M⁻¹ s⁻¹. The molecule also showed an EC50 in test [3] of 1060 pM.

Source of the values: patent US20230242658A1 (published 2023).
